From PMC10897488
These are yes or no findings as the source states them, for the method shown. In cells and extracts the contact can be indirect. Some results given as binding are weak or reduced against the parent protein; the word gives no strength. For part of these data: Tags and fused reporters may be left off the sequences shown.

Amino acid sequences for entries named in this document (tags omitted). A change or cut given only in a name is not applied to a line headed by its entry. Chains listed by the source or under a name are the forms on record and can include a tag or linker. Residues count along the entry.
UniProt O43791: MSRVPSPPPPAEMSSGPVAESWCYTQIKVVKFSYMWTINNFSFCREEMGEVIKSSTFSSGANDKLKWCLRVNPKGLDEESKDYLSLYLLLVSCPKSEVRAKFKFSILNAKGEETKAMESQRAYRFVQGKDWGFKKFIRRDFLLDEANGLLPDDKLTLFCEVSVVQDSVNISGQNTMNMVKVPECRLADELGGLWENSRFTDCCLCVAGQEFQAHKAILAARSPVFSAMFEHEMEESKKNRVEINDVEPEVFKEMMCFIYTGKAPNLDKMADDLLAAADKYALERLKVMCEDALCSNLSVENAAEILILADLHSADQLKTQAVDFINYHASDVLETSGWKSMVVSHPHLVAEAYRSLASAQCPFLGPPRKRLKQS
Fg-SPOP-MATH (human (cDNA of HCC cells)): residues 31-161 of O43791
UniProt Q7Z5L9: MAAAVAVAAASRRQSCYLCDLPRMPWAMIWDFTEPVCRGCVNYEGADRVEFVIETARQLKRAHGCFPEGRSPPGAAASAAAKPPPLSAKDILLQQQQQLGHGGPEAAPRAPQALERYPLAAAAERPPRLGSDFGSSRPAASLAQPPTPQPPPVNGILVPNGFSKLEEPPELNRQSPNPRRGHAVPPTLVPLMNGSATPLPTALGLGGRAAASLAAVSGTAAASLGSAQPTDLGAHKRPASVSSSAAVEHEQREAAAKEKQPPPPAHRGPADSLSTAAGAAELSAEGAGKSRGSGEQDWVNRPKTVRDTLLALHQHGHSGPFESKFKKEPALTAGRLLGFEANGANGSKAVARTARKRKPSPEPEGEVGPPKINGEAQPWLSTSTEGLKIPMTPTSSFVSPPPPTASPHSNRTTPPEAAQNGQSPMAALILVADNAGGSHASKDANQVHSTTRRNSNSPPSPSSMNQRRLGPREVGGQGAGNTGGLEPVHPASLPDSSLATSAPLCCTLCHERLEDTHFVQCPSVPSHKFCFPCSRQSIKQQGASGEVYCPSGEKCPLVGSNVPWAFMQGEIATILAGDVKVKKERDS
Myc-IRF2BP2-Mu (Q7Z5L9, form named): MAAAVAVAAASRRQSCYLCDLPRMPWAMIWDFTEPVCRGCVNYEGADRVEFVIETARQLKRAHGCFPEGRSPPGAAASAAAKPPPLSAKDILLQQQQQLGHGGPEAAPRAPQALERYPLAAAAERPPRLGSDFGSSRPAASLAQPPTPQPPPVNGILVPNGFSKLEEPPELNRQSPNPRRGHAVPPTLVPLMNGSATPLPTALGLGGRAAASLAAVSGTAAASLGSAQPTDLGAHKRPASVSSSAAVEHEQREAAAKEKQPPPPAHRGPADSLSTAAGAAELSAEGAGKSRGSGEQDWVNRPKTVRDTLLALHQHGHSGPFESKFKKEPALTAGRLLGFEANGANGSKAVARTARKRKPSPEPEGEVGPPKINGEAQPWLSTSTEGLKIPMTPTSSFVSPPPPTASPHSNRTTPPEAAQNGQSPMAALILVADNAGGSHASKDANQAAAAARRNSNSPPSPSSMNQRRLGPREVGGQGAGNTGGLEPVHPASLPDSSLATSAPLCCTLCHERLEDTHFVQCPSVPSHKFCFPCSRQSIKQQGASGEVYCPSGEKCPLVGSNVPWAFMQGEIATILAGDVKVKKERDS
UniProt P01106: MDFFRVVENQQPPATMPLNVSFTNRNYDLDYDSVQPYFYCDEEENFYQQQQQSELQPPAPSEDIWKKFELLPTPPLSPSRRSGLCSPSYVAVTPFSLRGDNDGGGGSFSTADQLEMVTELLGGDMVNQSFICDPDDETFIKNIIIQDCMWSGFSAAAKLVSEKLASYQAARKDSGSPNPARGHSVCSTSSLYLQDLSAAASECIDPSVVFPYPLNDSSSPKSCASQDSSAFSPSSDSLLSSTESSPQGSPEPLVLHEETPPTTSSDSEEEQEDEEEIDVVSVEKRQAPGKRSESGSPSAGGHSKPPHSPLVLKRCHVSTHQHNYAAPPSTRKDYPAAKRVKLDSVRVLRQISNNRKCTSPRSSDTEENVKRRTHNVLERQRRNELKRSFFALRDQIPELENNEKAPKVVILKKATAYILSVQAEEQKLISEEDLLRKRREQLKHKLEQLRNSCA
UniProt P10070: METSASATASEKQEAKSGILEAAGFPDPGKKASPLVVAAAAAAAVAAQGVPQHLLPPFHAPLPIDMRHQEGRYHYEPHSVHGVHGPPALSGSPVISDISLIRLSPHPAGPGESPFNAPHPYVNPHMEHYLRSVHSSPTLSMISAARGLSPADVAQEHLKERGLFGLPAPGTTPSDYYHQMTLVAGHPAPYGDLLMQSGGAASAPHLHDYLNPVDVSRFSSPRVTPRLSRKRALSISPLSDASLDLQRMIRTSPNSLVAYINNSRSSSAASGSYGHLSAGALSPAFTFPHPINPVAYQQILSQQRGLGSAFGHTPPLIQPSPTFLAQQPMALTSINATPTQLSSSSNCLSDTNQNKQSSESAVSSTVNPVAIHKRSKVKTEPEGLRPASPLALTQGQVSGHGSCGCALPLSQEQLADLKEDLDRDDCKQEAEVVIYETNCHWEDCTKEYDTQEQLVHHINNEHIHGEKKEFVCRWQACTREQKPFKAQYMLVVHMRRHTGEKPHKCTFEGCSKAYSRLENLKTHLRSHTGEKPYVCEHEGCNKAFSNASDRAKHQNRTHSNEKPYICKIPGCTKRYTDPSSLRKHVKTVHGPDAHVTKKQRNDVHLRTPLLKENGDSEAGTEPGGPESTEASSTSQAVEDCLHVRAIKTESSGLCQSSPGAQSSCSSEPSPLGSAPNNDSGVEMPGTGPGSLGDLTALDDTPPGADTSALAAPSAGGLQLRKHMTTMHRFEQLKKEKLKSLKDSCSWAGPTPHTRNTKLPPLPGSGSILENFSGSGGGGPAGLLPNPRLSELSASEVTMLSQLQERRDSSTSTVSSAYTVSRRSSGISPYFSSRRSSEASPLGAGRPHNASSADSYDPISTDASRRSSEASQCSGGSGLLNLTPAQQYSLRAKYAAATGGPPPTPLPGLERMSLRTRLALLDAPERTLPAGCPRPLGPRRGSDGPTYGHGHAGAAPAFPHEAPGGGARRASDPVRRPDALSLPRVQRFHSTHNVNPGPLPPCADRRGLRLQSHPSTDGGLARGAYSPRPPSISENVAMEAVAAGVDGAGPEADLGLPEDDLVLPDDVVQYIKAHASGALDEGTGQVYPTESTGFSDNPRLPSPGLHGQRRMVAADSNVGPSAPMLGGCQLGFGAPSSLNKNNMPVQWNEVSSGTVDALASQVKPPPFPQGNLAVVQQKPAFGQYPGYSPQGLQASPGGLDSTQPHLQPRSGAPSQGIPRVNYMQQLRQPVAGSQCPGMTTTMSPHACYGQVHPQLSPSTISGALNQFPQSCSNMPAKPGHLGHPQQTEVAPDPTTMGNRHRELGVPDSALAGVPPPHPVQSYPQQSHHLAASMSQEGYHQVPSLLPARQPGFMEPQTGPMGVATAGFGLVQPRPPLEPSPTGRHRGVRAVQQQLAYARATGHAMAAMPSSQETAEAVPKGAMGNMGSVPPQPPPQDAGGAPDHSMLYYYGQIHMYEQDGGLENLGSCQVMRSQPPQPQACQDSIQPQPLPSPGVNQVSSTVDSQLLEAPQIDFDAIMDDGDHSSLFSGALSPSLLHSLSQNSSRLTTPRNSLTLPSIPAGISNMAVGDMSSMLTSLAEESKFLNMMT

Tests used:
[1] = biological target: Fg-SPOP (human (cDNA of HCC cells)) (UniProt O43791); assay: co-IP; co-IP of SPOP or SPOP-M35L with one substrate, with or without a second substrate co-expressed (Fig. 7H-K, Fig. S6A-D)
[2] = biological target: Fg-SPOP-M35L (human (cDNA of HCC cells)) (UniProt O43791); assay: as above
[3] = biological target: T1, Fg-VGLL4 (human (cDNA of HCC cells)) (UniProt Q14135); assay: co-IP; co-transfected cells (HEK-293T where told), treated with 25 μM MG132 for 8 h, harvested 48 h after transfection; IP by anti-Fg, anti-Myc or anti-HA, immunoblot
T1 sequence: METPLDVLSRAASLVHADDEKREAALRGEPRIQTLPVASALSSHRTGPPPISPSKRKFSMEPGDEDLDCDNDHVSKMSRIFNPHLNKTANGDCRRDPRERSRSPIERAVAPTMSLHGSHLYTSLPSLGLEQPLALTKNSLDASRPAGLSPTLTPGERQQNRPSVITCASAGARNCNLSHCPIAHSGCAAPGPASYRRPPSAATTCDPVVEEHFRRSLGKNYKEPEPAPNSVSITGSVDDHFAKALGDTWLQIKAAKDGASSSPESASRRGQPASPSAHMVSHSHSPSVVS

[4] = biological target: SPOP-Y87N (human (cDNA of HCC cells)) (UniProt O43791); assay: as above
[5] = biological target: SPOP-F125I (human (cDNA of HCC cells)) (UniProt O43791); assay: as above
[6] = biological target: SPOP-S119N (human (cDNA of HCC cells)) (UniProt O43791); assay: as above
[7] = biological target: SPOP-F133V (human (cDNA of HCC cells)) (UniProt O43791); assay: as above
[8] = biological target: Fg-SPOP-MATH (human (cDNA of HCC cells)) (UniProt O43791); assay: as above
[9] = biological target: SPOP-F136L (human (cDNA of HCC cells)) (UniProt O43791); assay: as above
[10] = biological target: SPOP-M117I (human (cDNA of HCC cells)) (UniProt O43791); assay: as above
[11] = biological target: SPOP-E47K (human (cDNA of HCC cells)) (UniProt O43791); assay: as above
[12] = biological target: Fg-SPOP (human (cDNA of HCC cells)) (UniProt O43791); assay: as above
[13] = biological target: SPOP-R121Q (human (cDNA of HCC cells)) (UniProt O43791); assay: as above
[14] = biological target: SPOP-K129E (human (cDNA of HCC cells)) (UniProt O43791); assay: as above
[15] = biological target: Fg-SPOP-M35L (human (cDNA of HCC cells)) (UniProt O43791); assay: as above
[16] = biological target: Myc-IRF2BP2 (human (cDNA of HCC cells)) (UniProt Q7Z5L9); assay: as above
[17] = biological target: endogenous IRF2BP2 (human (endogenous in SMMC-7721 and SK-Hep1)) (UniProt Q7Z5L9); assay: co-IP; endogenous proteins of SMMC-7721 and SK-Hep1 cells; IP of IRF2BP2, immunoblot
[18] = biological target: Fg-SPOP (human (cDNA of HCC cells)) (UniProt O43791); assay: co-IP; co-transfected cells (HEK-293T where told), treated with 25 μM MG132 for 8 h, harvested 48 h after transfection; IP by anti-Fg, anti-Myc or anti-HA, immunoblot; remark: listed apart in the source
[19] = biological target: Fg-SPOP-M35L (human (cDNA of HCC cells)) (UniProt O43791); assay: as above; remark: listed apart in the source

Measured: binding

Myc-IRF2BP2 (from UniProt Q7Z5L9 1-587)
binds: [1] | [2] | [3] | [8] | [9] | [10] | [11] | [12] | [13] | [15]
no binding: [4] | [5] | [6] | [7] | [14]

HA-c-MYC (from UniProt P01106 1-454)
binds: [1] | [2] | [12] | [15]

Fg-SPOP (from UniProt O43791 1-374)
binds: [16]

endogenous SPOP (from UniProt O43791 1-374)
binds: [17]

Myc-GLI2 (from UniProt P10070 1-1586)
binds: [1] | [2] | [12] | [15]

IRF2BP2-K289R (from UniProt Q7Z5L9 1-587)
binds: [12]

IRF2BP2-K236R (from UniProt Q7Z5L9 1-587)
binds: [12]

Myc-IRF2BP2-Mu (from UniProt Q7Z5L9 1-587)
binds: [3]

B1: HA-TRIM24 (protein, UniProt O15164 1-1050)
chain: MEVAVEKAVAAAAAASAAASGGPSAAPSGENEAESRQGPDSERGGEAARLNLLDTCAVCHQNIQSRAPKLLPCLHSFCQRCLPAPQRYLMLPAPMLGSAETPPPVPAPGSPVSGSSPFATQVGVIRCPVCSQECAERHIIDNFFVKDTTEVPSSTVEKSNQVCTSCEDNAEANGFCVECVEWLCKTCIRAHQRVKFTKDHTVRQKEEVSPEAVGVTSQRPVFCPFHKKEQLKLYCETCDKLTCRDCQLLEHKEHRYQFIEEAFQNQKVIIDTLITKLMEKTKYIKFTGNQIQNRIIEVNQNQKQVEQDIKVAIFTLMVEINKKGKALLHQLESLAKDHRMKLMQQQQEVAGLSKQLEHVMHFSKWAVSSGSSTALLYSKRLITYRLRHLLRARCDASPVTNNTIQFHCDPSFWAQNIINLGSLVIEDKESQPQMPKQNPVVEQNSQPPSGLSSNQLSKFPTQISLAQLRLQHMQQQVMAQRQQVQRRPAPVGLPNPRMQGPIQQPSISHQQPPPRLINFQNHSPKPNGPVLPPHPQQLRYPPNQNIPRQAIKPNPLQMAFLAQQAIKQWQISSGQGTPSTTNSTSSTPSSPTITSAAGYDGKAFGSPMIDLSSPVGGSYNLPSLPDIDCSSTIMLDNIVRKDTNIDHGQPRPPSNRTVQSPNSSVPSPGLAGPVTMTSVHPPIRSPSASSVGSRGSSGSSSKPAGADSTHKVPVVMLEPIRIKQENSGPPENYDFPVVIVKQESDEESRPQNANYPRSILTSLLLNSSQSSTSEETVLRSDAPDSTGDQPGLHQDNSSNGKSEWLDPSQKSPLHVGETRKEDDPNEDWCAVCQNGGELLCCEKCPKVFHLSCHVPTLTNFPSGEWICTFCRDLSKPEVEYDCDAPSHNSEKKKTEGLVKLTPIDKRKCERLLLFLYCHEMSLAFQDPVPLTVPDYYKIIKNPMDLSTIKKRLQEDYSMYSKPEDFVADFRLIFQNCAEFNEPDSEVANAGIKLENYFEELLKNLYPEKRFPKPEFRNESEDNKFSDDSDDDFVQPRKKRLKSIEERQLLK
binds: [18] | [19] | [1] | [2]

B2: endogenous VGLL4 (protein, UniProt Q14135 1-290)
chain: T1 sequence
binds: [17]
